Out of some 350,000 compounds screened, about 31,000 (8.9%) were called active. The shares of active, inactive and inconclusive entries below differ from those in the screen. Calls follow the shape of the dose curve; as a rule, active = well fitted inhibition curve with a large enough effect; inconclusive = small, poorly fitted or top-dose-only effect; inactive = no such curve, though single readings can be large or run the other way. Where the call is inconclusive, the potency comes from a doubtful curve fit. The source holds several records for some structures; these can differ, active in one and inactive in another.
Target: Histone-lysine N-methyltransferase EHMT2 (Homo sapiens) (UniProt Q96KQ7)
Chain of UniProt Q96KQ7 (Q96KQ7 whole entry, looked up): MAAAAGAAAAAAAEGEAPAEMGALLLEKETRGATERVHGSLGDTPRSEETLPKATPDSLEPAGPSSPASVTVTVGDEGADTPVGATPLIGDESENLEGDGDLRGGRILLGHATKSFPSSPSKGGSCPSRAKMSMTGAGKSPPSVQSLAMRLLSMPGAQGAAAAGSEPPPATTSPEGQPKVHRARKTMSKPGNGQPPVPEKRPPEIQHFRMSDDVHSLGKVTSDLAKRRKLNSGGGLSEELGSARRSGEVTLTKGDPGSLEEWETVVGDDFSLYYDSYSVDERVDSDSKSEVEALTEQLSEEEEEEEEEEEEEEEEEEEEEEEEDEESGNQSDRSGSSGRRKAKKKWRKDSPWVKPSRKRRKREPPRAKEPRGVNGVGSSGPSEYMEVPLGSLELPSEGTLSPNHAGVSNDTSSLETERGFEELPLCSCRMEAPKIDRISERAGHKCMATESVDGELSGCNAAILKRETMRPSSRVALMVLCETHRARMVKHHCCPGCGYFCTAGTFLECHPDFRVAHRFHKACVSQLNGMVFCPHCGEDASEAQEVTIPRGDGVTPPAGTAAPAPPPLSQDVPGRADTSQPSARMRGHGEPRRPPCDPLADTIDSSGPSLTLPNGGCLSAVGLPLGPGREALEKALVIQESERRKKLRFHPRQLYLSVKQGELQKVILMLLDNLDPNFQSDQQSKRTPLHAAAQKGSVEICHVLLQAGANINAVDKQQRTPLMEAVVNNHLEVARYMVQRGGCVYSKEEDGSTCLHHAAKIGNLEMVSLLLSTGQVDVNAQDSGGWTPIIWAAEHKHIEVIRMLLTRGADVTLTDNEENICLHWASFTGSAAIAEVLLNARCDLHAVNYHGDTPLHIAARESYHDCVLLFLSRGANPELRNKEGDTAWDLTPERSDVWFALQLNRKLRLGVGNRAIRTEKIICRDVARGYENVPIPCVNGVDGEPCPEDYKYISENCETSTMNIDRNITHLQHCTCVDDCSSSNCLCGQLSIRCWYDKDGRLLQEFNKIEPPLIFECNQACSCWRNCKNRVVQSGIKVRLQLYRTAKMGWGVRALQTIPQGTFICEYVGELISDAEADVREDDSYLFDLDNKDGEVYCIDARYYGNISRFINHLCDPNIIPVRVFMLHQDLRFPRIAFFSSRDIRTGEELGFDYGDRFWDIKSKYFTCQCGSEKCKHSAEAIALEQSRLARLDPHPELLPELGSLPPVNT
Assay: qHTS Assay for Inhibitors of Histone Lysine Methyltransferase G9a; also: nearly all actives have a fitted effect of over 75% in size
Details: G9a H3K9 monomethylation, AlphaScreen, 2 h; activity, negative = inhibition: at 59 µM (top of the series) unless noted
How it was run: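 Signal arises when biotinylated H3K9 peptide, once monomethylated, bridges streptavidin donor and antibody-captured acceptor beads. Enzyme at 20 nM was preincubated 15 min with test compounds; peptide 500 nM and SAM 20 uM then reacted for 2 h.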
% is scaled to controls: 0 for no effect and ±100 for the full control effect; potency is read from the fitted curve at half-maximal effect; tags tell the direction and shape of the fitted curve.

Q: With `CCOC(=O)c1c(N)sc2c1C1CCN2CC1` as the compound, how does the Potency read?
A: active: 79.4 µM

Q: How did the Potency turn out when `Clc1cccc(-c2nnc(SCc3nc4ccccc4[nH]3)n2Cc2ccco2)c1` was run?
A: active: 39.8 µM

Q: `Cc1ccc(N(CCC#N)C(=O)COC(=O)c2ccccc2SCC(=O)N2CCCC2)cc1` was tested. Which “activity, negative = inhibition” value did it give?
A: inactive: -46.9%

Q: For `CCOc1ccc(N2CC(C(=O)Nc3nnc(CC)s3)CC2=O)cc1` (stereo unspecified), which Potency is on record?
A: inconclusive: 63.1 µM [inhibitor, single point]

Q: With `Cn1c(-c2sccc2OCc2cccc(C(F)(F)F)c2)n[nH]c1=S` as the compound, how does the Potency read?
A: active: 4.47 µM

Q: With `O=C(O)c1ccccc1-c1ccccc1C(=O)NCc1ccccc1Cl` as the compound, how does the Potency read?
A: inconclusive: 89.1 µM [inhibitor, single point]

Q: With `CCc1nnc(NC(=O)CSc2nccn2-c2cccc(C)c2)s1` as the compound, how does the Potency read?
A: inconclusive: 89.1 µM [inhibitor, single point]

Q: With `COc1ccc(NC(=O)NCc2ccco2)c(OC)c1` as the compound, how does the Potency read?
A: inconclusive: 39.8 µM [inhibitor, partial curve, poor fit]

Q: For `Fc1ccc(NC(=S)N2CCCN(c3ccc(C(F)(F)F)cn3)CC2)c(F)c1`, which Potency is on record?
A: inconclusive: 39.8 µM [inhibitor, partial curve, poor fit]

Q: Which Potency does the source give for `NS(=O)(=O)c1cccc(NC(=S)NCc2ccccc2)c1` here?
A: inconclusive: 50.1 µM [inhibitor, partial curve, poor fit]

Q: How did the Potency turn out when `O=C(Cn1cc([N+](=O)[O-])cn1)NCc1ccco1` was run?
A: inconclusive: 10 µM [inhibitor, full curve]

Q: How did the Potency turn out when `Cc1ccc(NC(=O)COC(=O)c2ccc(C)c(S(=O)(=O)N3CCOCC3)c2)cc1` was run?
A: inconclusive: 89.1 µM [inhibitor, partial curve, poor fit]

Q: Which “activity, negative = inhibition” value does the source give for `COc1ccc(CCN2C(=O)N(c3ccc(F)cc3)C(=O)C2CC(=O)Nc2ccc(F)c(F)c2)cc1` (stereo unspecified) here?
A: inactive: -5.62%

Q: `O=C(c1ccco1)N1CCN(C(=O)N2c3ccccc3Sc3ccccc32)CC1` was tested. Which activity, negative = inhibition did it give?
A: inconclusive: -67.3% [inhibitor]

Q: For `Oc1oc(-c2ccccc2)nc1/C=N/c1nccs1`, which Potency is on record?
A: inconclusive: 6.31 µM [inhibitor, full curve]

Q: How did the Potency turn out when `O=C1c2oc3ccc(Cl)cc3c(=O)c2C(c2cccnc2)N1Cc1ccco1` (stereo unspecified) was run?
A: inconclusive: 79.4 µM [inhibitor, single point]

Q: `C[N+]1(C2CCC3CCCC2C3O)CCCCC1` (stereo unspecified) was tested. Which activity, negative = inhibition did it give?
A: inconclusive: -71.5% [inhibitor] [at 12.7 µM]

Q: With `COc1cccc(N2CCN(C(=O)c3ccccc3SCC(=O)NCc3ccco3)CC2)c1` as the compound, how does the activity, negative = inhibition read?
A: inactive: -2.37% [at 12.7 µM]

Q: Which activity, negative = inhibition does the source give for `COCc1nnc(NC(=O)CCC2CCCCC2)s1` here?
A: inconclusive: -85.9% [inhibitor]

Q: With `O=C(COC(=O)c1ccccc1F)Nc1cc(S(=O)(=O)N2CCOCC2)ccc1N1CCCC1` as the compound, how does the Potency read?
A: active: 35.5 µM

Q: With `O=C(NNC(=O)C1CCCN(c2ncccn2)C1)c1ccc(F)cc1` (stereo unspecified) as the compound, how does the “activity, negative = inhibition” value read?
A: inactive: 70.1%

Q: `Cc1oc2cc3oc(=O)c(CCC(=O)NCCCN4CCOCC4)c(C)c3cc2c1C` was tested. Which Potency did it give?
A: inconclusive: 7.08 µM [inhibitor, single point]

Q: `CN1C(=O)NC(c2ccccc2)C2=C1CN(c1cccc(C(F)(F)F)c1)C2=O` (stereo unspecified) was tested. Which Potency did it give?
A: active: 50.1 µM

Q: `CCn1nc(C(=O)OCC(=O)Nc2ncc(Cl)c(C)c2Cl)c2ccccc2c1=O` was tested. Which Potency did it give?
A: active: 50.1 µM

Q: `COc1ccc(N2C(=O)CC(N3CCC(O)(c4cccc(C(F)(F)F)c4)CC3)C2=O)cc1` (stereo unspecified) was tested. Which Potency did it give?
A: active: 39.8 µM

Q: Which activity, negative = inhibition does the source give for `C#CCOCCOCCOCCNc1nc(N2CCOCC2)nc(N2CCN(C(=O)[C@H](Cc3cc4ccccc4[nH]3)n3cc([C@@H](N)C(C)CC)nn3)CC2)n1` (stereo partly specified) here?
A: inconclusive: -73.4% [inhibitor]

Q: Which Potency does the source give for `Cc1nn(Cc2nnc(SCC(=O)Nc3ccc(Cl)cc3)n2C)c(C)c1[N+](=O)[O-]` here?
A: inconclusive: 79.4 µM [inhibitor, single point]

Q: `Cc1c(NC(=O)c2ccc(N3CCC(C)CC3)c([N+](=O)[O-])c2)cccc1-c1nc2ccccc2o1` was tested. Which Potency did it give?
A: inconclusive: 4.47 µM [inhibitor, partial curve, poor fit]

Q: For `COc1ccccc1NC(=S)NCc1ccc2c(c1)cc(C)n2C`, which Potency is on record?
A: inconclusive: 39.8 µM [inhibitor, partial curve]

Q: `COc1ccc(-c2noc(N3CCN(c4cccc(C)c4C)CC3)n2)cc1OC` was tested. Which “activity, negative = inhibition” value did it give?
A: inactive: -1.02%

Q: With `Cc1nc2ccccn2c1C(=O)C(=O)Nc1cc(F)ccc1F` as the compound, how does the Potency read?
A: inconclusive: 35.5 µM [inhibitor, partial curve, poor fit]

Q: How did the “activity, negative = inhibition” value turn out when `COc1ccc(-c2nc(SCc3ccccc3)n(S(C)(=O)=O)n2)cc1` was run?
A: inactive: 22.5%

Q: Which Potency does the source give for `c1ccc(N2CCN(Cc3ccnc4ccccc34)CC2)cc1` here?
A: active: 4.47 µM

Q: `COc1ccccc1N1CCN(C(=O)c2cc3c(s2)CCC3)CC1` was tested. Which Potency did it give?
A: inconclusive: 89.1 µM [inhibitor, single point]

Q: How did the Potency turn out when `CCC(CC)c1nnc(NC(=O)c2ccc(N3CCCCC3)c([N+](=O)[O-])c2)s1` was run?
A: inconclusive: 12.6 µM [inhibitor, partial curve]

Q: With `Cc1cc(C)c(-c2cc(C)nc3ncnn23)c(C)c1` as the compound, how does the Potency read?
A: inconclusive: 100 µM [inhibitor, partial curve, poor fit]

Q: With `COc1ccc(OC)c2c1cc(C(=O)N[C@@H](Cc1ccccc1)C(=O)O)n2C` as the compound, how does the Potency read?
A: inconclusive: 89.1 µM [inhibitor, single point]

Q: With `COc1ccc(NC(=S)Nc2ccc3nsnc3c2)cc1` as the compound, how does the Potency read?
A: active: 2 µM

Q: Which activity, negative = inhibition does the source give for `COc1ccc(CN2C(=O)CS(=O)CC2=O)cc1OC` here?
A: inconclusive: -90.1% [inhibitor]

Q: With `O=C1C(=O)N(CCN2CCOCC2)C(c2ccc(Cl)cc2)/C1=C(/O)c1ccc(S(=O)(=O)N2CCOCC2)cc1` (stereo unspecified) as the compound, how does the Potency read?
A: active: 56.2 µM

Q: How did the Potency turn out when `COc1ccc(-c2csc(Nc3ncccc3C)n2)cc1` was run?
A: active: 17.8 µM

Q: `Cc1cc(Cl)ccc1NC(=S)N1CCN(C(=O)c2ccco2)CC1` was tested. Which activity, negative = inhibition did it give?
A: inactive: 6.39% [at 12.7 µM]

Q: `COc1ccccc1NC(=O)CSc1nnc(CCNC(=O)c2ccc(C)cc2)n1C` was tested. Which Potency did it give?
A: inconclusive: 35.5 µM [inhibitor, single point]

Q: With `COc1ccc(/C=C2/C(=O)N(c3ccccc3)N=C2C)cc1OC` as the compound, how does the Potency read?
A: active: 70.8 µM

Q: Which Potency does the source give for `CC1CCCC(NC(=O)CN(C)CC(=O)Nc2cccc(F)c2)C1C` (stereo unspecified) here?
A: inconclusive: 10 µM [inhibitor, partial curve, poor fit]

Q: For `CCCNC(=O)CCC(=O)N1Cc2ccccc2Oc2ncccc21`, which “activity, negative = inhibition” value is on record?
A: inactive: -5.24%

Q: How did the activity, negative = inhibition turn out when `COc1ccccc1N1CCN(C(=O)C2CC=CCC2C(=O)O)CC1` (stereo unspecified) was run?
A: inconclusive: -60.1% [inhibitor]

Q: With `O=C(Nc1nc(-c2ccccn2)cs1)C1CCCC1` as the compound, how does the Potency read?
A: inconclusive: 14.1 µM [inhibitor, partial curve, poor fit]

Q: For `COc1ccc(N2C(=O)C3CCCN3C2c2ccc(C)o2)cc1Cl` (stereo unspecified), which Potency is on record?
A: inconclusive: 89.1 µM [inhibitor, single point]

Q: With `Cc1[nH]c2ccccc2c1/C=N/NC(=O)c1cc(-c2cccs2)[nH]n1` as the compound, how does the Potency read?
A: inconclusive: 89.1 µM [inhibitor, single point]

Q: With `CC(=O)N(CN1C(=O)c2ccccc2C1=O)c1cccc(C)c1` as the compound, how does the “activity, negative = inhibition” value read?
A: inactive: -17.6% [at 102 µM]

Q: Which “activity, negative = inhibition” value does the source give for `Cc1cc(C)nc(SCC(CSc2nc(C)cc(C)n2)C(=O)O)n1` here?
A: inactive: 11.2% [at 102 µM]

Q: With `Cn1c(=O)c(-c2cc(F)cc(F)c2)nc2cnc(Oc3ccccc3)nc21` as the compound, how does the Potency read?
A: inconclusive: 0.708 µM [inhibitor, full curve, poor fit]

Q: Which “activity, negative = inhibition” value does the source give for `CC(C)c1ccc(-c2csc(NC(=O)c3cccs3)c2C(=O)O)cc1` here?
A: inactive: -38.4% [at 102 µM]

Q: How did the Potency turn out when `COC(=O)c1ccccc1SC1CC(=O)N(c2cccc(C)c2)C1=O` (stereo unspecified) was run?
A: active: 44.7 µM

Q: `Cc1ccc(CC(=O)OCCNC(=O)c2cccnc2)cc1` was tested. Which Potency did it give?
A: inconclusive: 28.2 µM [inhibitor, single point]

Q: `CNC[C@H](O)c1ccc(O)c(O)c1` was tested. Which Potency did it give?
A: active: 7.94 µM

Q: For `O=C(CSc1ncnc2ccccc12)c1ccc2c(c1)OCCO2`, which Potency is on record?
A: inconclusive: 35.5 µM [inhibitor, partial curve, poor fit]

Q: `CCN(Cc1nc(-c2ccc(C)cc2)no1)C(=O)c1ccco1` was tested. Which Potency did it give?
A: inconclusive: 89.1 µM [inhibitor, single point]

Q: `COc1ccc(/C=N/c2nc3ccccc3n2CCN2CCCCC2)cc1OC` was tested. Which “activity, negative = inhibition” value did it give?
A: inactive: -40.4%

Q: With `CC(C)c1ccc(-n2ccnc2SCC(=O)O)cc1` as the compound, how does the Potency read?
A: inconclusive: 39.8 µM [inhibitor, partial curve]

Q: With `CCCc1nc2oc(C(=O)c3ccccc3)c(N)c2c2c1COC(C)(C)C2` as the compound, how does the Potency read?
A: inconclusive: 35.5 µM [inhibitor, single point]

Q: For `CCN=C1S/C(=C/c2ccc(-c3ccc(Cl)cc3C(=O)O)o2)C(=O)N1CC`, which Potency is on record?
A: active: 44.7 µM

Q: Which Potency does the source give for `CCc1cccc(C)c1NC(=O)c1cccc(N(C)C)c1` here?
A: inconclusive: 2 µM [inhibitor, full curve, poor fit]

Q: How did the Potency turn out when `COc1cc(/C=C/C(=O)c2ccc(Cl)s2)cc(OC)c1O` was run?
A: inconclusive: 89.1 µM [inhibitor, single point]

Q: For `CCOC(=O)c1cccc(NC(=O)CSc2nc(N)cc(N)n2)c1`, which Potency is on record?
A: inconclusive: 31.6 µM [inhibitor, partial curve, poor fit]

Q: How did the “activity, negative = inhibition” value turn out when `Cc1ccc(N=Nc2c(C)[nH]n(-c3ccccc3)c2=O)c(C)c1` was run?
A: inactive: -13.5% [at 102 µM]

Q: Which Potency does the source give for `COc1ccccc1CCNC(=O)Nc1cccc([N+](=O)[O-])c1` here?
A: inconclusive: 70.8 µM [inhibitor, partial curve, poor fit]

Q: How did the Potency turn out when `CC12CCC(c3c(C(=O)O)nn(-c4ccccc4)c31)C2(C)C` (stereo unspecified) was run?
A: inconclusive: 89.1 µM [inhibitor, single point]

Q: With `COCCn1c(SCC(=O)N2CCCCC2)nc2c(c1=O)SC(C)C2` (stereo unspecified) as the compound, how does the “activity, negative = inhibition” value read?
A: inactive: 66.2% [at 102 µM]

Q: Which Potency does the source give for `Cc1ccc(S(=O)(=O)N/N=C/c2ccccc2F)cc1[N+](=O)[O-]` here?
A: active: 11.2 µM
